Test results published in paper PMC5341729 (Molecular Biology of the Cell, 2017).

Columns and labels:
MYO10-TPRN(KASA)^BAIT = target: T1, MYO10-TPRN(KASA)^BAIT (mouse, UniProt A2AI08 1-749, KISF to KASA (KISF motif, residues 624-627)); assay: NanoSPD
T1 sequence: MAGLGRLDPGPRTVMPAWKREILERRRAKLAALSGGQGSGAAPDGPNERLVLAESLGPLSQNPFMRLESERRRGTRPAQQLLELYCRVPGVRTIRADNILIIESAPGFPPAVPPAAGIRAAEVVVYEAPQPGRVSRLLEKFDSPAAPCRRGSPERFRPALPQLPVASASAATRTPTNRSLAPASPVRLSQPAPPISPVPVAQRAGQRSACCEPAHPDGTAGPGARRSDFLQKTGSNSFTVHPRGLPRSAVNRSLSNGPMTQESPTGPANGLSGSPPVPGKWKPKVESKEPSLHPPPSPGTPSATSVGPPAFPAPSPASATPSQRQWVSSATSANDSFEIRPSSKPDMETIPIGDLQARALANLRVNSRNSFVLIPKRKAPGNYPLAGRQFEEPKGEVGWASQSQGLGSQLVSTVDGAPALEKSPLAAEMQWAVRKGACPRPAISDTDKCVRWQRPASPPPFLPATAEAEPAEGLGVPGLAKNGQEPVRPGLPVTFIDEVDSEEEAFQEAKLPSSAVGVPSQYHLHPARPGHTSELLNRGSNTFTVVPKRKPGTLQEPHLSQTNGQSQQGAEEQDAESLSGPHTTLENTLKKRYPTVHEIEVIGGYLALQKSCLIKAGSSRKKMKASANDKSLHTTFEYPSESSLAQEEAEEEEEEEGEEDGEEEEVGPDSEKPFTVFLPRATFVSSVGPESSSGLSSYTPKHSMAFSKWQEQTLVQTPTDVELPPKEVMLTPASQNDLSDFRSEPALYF

[1] = target: T2, MYO10-TPRN^BAIT (taperin fused to MYO10^HMM) (mouse, UniProt A2AI08 1-749); assay: NanoSPD
T2 sequence: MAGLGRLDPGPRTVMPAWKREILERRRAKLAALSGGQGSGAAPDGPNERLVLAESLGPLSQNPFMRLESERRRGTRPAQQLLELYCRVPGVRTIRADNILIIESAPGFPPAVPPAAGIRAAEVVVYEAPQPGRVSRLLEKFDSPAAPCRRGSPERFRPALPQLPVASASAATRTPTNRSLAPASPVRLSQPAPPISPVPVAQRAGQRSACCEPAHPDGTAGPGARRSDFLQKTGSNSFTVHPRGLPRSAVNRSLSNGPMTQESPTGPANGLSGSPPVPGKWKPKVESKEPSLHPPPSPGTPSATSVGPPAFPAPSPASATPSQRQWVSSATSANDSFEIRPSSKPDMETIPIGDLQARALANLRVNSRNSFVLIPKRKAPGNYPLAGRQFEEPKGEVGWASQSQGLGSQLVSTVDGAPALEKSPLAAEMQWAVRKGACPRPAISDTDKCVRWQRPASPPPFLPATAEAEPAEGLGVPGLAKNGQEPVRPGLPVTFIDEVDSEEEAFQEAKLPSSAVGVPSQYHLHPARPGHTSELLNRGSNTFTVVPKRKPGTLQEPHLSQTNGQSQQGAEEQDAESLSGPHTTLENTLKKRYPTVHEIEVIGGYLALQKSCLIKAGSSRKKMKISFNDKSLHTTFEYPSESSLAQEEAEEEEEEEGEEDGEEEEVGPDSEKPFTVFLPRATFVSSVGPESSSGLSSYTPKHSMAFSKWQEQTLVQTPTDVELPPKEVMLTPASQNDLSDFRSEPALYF

B1: PPP1CA^PREY (natural protein)
chain: not shown
fold increase of prey fluorescence at filopodial tips against MYO10^(NO BAIT) (MYO10-TPRN(KASA)^BAIT): 1.6 fold
fold increase of prey fluorescence at filopodial tips against MYO10^(NO BAIT) [1]: 5.2 fold
